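Values below derive from 48-hour exposures of cells grown in 96-well plates, with endpoints linearly interpolated between the two concentrations bracketing the appropriate inhibition level. Here, GI50 denotes the concentration required for 50% inhibition of growth.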 Some entries of the source have several records that differ or are many. This list holds those alone. The source may hold further records. For some of these results: Records of one sample usually come from different ranges of test concentrations, which the source does not state; some values may only mark the edge of a range. Brackets tell where a record comes from. Letters hold for one entry only. For some of these results: The records of an entry are repeated measurements across runs, samples, wells, individuals or studies.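 TGI: concentration producing complete growth inhibition.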

Among the test systems are ACHN renal; CAKI-1 renal; DU-145 prostate; HOP-62 NSCLC; HOP-92 NSCLC; LOX IMVI melanoma; MOLT-4 leukemia; NCI-H226 lung; NCI/ADR-RES ovarian; OVCAR-3 ovarian; OVCAR-4 ovarian; OVCAR-8 ovarian; PC-3 prostate; SF-295 CNS; SK-MEL-2 melanoma; SK-OV-3 ovarian; SN12C renal; SNB-75 CNS; TK-10 renal; UO-31 renal; MALME-3M melanoma; 786-0 renal; EKVX NSCLC; HCC-2998 colon; HT29 colon; M14 melanoma; NCI-H522 lung; OVCAR-5 ovarian; RXF 393 renal; SF-268 CNS; SF-539 CNS; SK-MEL-28 melanoma; U251 CNS.

Holding throughout (test): NCI anticancer screen, dose series, 48 h

`CN1N=C(N)c2cn(C3OC(COP(=O)(O)O)C(O)C3O)c3ncnc1c23` (stereo unspecified): the TGI with ACHN renal is given as 93.2 µM, 1.65 mM, 251 µM; in the experiment on CAKI-1 renal, 154 µM, 1.65 mM, 11.7 µM; in the experiment with DU-145 prostate it was 36.6 µM, 95.6 µM, 1.36 mM, 183 µM; in the experiment on HOP-62 NSCLC it was 63.2 µM, 390 µM, 1.65 mM, 1.67 mM; in the experiment with HOP-92 NSCLC, 9.13, 5.53, 53.7, 1.36 µM; with LOX IMVI melanoma, 24.6, 32.3, 167, 289 µM. Besides, the TGI in the experiment on MOLT-4 leukemia is 71.6 µM, 1.65 mM, 285 µM; in the experiment with NCI-H226 lung, 1.65 mM [1 test] and 170 µM [mean of 3 tests] and 111 µM [mean of 8 tests]; in the experiment on NCI/ADR-RES ovarian, 47 µM, 1.65 mM [1 test] and 108 µM [mean of 11 tests] and 189 µM [mean of 4 tests]; with OVCAR-3 ovarian, 117 µM, 1.65 mM, 664 µM; with OVCAR-4 ovarian it was 84.2 µM, 1.65 mM, 115 µM; in the experiment on OVCAR-8 ovarian, 19.1, 41.9, 422, 46.3 µM. In addition, the TGI was 95.4 µM, 1.65 mM, 109 µM in the experiment with PC-3 prostate; 379 µM, 1.65 mM, > 5 mM in the experiment on SF-295 CNS; 77.1 µM, 64 µM, 1.16 mM, 131 µM in the experiment on SK-MEL-2 melanoma; 86.1 µM, 1.65 mM, 32 µM in the experiment on SK-OV-3 ovarian; 69.2 µM, 159 µM, 1.65 mM, 174 µM in the experiment with SN12C renal; 34.7 µM, 85 µM, 149 µM [1 test] and 162 µM [mean of 9 tests] in the experiment on SNB-75 CNS. Besides, the TGI in the experiment on TK-10 renal is 137 µM, 1.65 mM, 111 µM; in the experiment on UO-31 renal it was 130 µM, 1.65 mM, 66.8 µM.

As to `C[C@H](NC(=O)c1c(N)nn2cccnc12)c1cc2cccc(C#Cc3cnn(C)c3)c2c(=O)n1-c1ccccc1`, in the experiment on MALME-3M melanoma, the GI50 was > 10 µM [sample A, 1 test] and 722 nM [sample B, 1 test].

Consider `CC(C)(O)/C=C/C(=O)[C@](C)(O)[C@H]1[C@H](O)C[C@@]2(C)[C@@H]3CC=C4[C@@H](C=C(O)C(=O)C4(C)C)[C@]3(C)C(=O)C[C@]12C`, for which the TGI in the experiment with 786-0 renal was 463 nM [sample A, mean of 3 tests] and 64.9 nM [sample B, 1 test] and 2.5 µM [sample B, mean of 5 tests]; with ACHN renal it was 822 nM [sample A, mean of 4 tests] and 10.5 µM [sample B, 1 test] and 3.92 µM [sample B, mean of 5 tests]; in the experiment with EKVX NSCLC, > 4.88 µM [sample A] and 6.27 µM, < 10 nM [sample B]; with HCC-2998 colon, > 3.96 µM [sample A, mean of 3 tests] and 385 nM [sample B, 1 test] and 8.9 µM [sample B, mean of 5 tests]; in the experiment with HOP-62 NSCLC, 1.11 µM [sample A, mean of 4 tests] and 35.6 nM [sample B, 1 test] and 3.65 µM [sample B, mean of 5 tests]; in the experiment on HOP-92 NSCLC, 457 nM [sample A, mean of 4 tests] and 51 nM [sample B, 1 test] and 1.72 µM [sample B, mean of 5 tests]. Also, the TGI in the experiment with HT29 colon was > 7 µM [sample A] and 137 nM [sample B]; with M14 melanoma, 3.41 µM [sample A] and 6.66 µM, 17 nM [sample B]; with MALME-3M melanoma it was 1.5 µM [sample A] and 5.1 µM, 95.6 nM [sample B]; in the experiment on NCI-H226 lung it was 683 nM [sample A, mean of 4 tests] and 51.3 nM [sample B, 1 test] and 2.02 µM [sample B, mean of 5 tests]; with NCI-H522 lung, 1.02 µM [sample A, mean of 3 tests] and 76.3 nM [sample B, 1 test] and 3.31 µM [sample B, mean of 4 tests]; in the experiment with OVCAR-3 ovarian it was 1.18 µM [sample A] and 3.99 µM, 69.9 nM [sample B]. Further, the TGI in the experiment on OVCAR-5 ovarian was > 10 µM [sample A] and 766 nM [sample B]; in the experiment with RXF 393 renal, 466 nM [sample A] and 1.24 µM, 18.9 nM [sample B]; in the experiment with SF-268 CNS, 665 nM [sample A] and 2.7 µM, 48.5 nM [sample B]; in the experiment with SF-295 CNS, 806 nM [sample A, mean of 4 tests] and 52.6 nM [sample B, 1 test] and 7.13 µM [sample B, mean of 5 tests]; in the experiment with SF-539 CNS it was 574 nM [sample A, mean of 4 tests] and < 10 nM [sample B, 1 test] and 1.08 µM [sample B, mean of 5 tests]; in the experiment with SK-OV-3 ovarian, > 4.42 µM [sample A, mean of 3 tests] and 66.9 nM [sample B, 1 test] and 5.53 µM [sample B, mean of 4 tests]. The TGI with SN12C renal was > 10 µM [sample A, mean of 4 tests] and 68.4 nM [sample B, 1 test] and 7.98 µM [sample B, mean of 5 tests]; in the experiment on SNB-75 CNS, 470 nM [sample A, mean of 3 tests] and < 10 nM [sample B, 1 test] and 1.98 µM [sample B, mean of 4 tests]; with U251 CNS it was 663 nM [sample A, mean of 4 tests] and 50.8 nM [sample B, 1 test] and 2.39 µM [sample B, mean of 5 tests]; with UO-31 renal it was 395 nM [sample A, mean of 4 tests] and < 10 nM [sample B, 1 test] and 3.74 µM [sample B, mean of 5 tests]. In addition, the GI50 in the experiment on SK-MEL-28 melanoma is 209 nM [sample A, mean of 4 tests] and < 10 nM [sample B, 1 test] and 624 nM [sample B, mean of 5 tests]; in the experiment with SK-OV-3 ovarian, 357 nM [sample A, mean of 3 tests] and < 10 nM [sample B, 1 test] and 933 nM [sample B, mean of 4 tests].

As for `CN1CCN(c2ccc3[nH]c(C4=C(O)c5nc(CCl)n(C)c5C(=O)C4=O)nc3n2)CC1`, the TGI in the experiment on SF-539 CNS was > 50 µM and 4.8 µM.

The values are drawn from PubChem BioAssay (NCI).
